Reference: PubChem BioAssay AID1224903 (Bradner/Qi Labs at DFCI, 2016)
The list shows a part of the results. The main result of the screen is listed elsewhere. These columns were measured beside it and carry no call. Most of these compounds were active or inconclusive in the main read-out, so they are no random draw.

target: Chromobox protein homolog 7 (Homo sapiens) (UniProt O95931); experiment: blockers of CBX7 binding to H3K27me3 peptide – biochemical, AlphaScreen, primary screen (AID 1224903); conditions: AlphaScreen His6-CBX7 / biotin-H3K27me3 peptide binding; measured here: z-score of CBX7 signal; stronger effect = lower value
Chain of UniProt O95931 (O95931 whole entry, looked up): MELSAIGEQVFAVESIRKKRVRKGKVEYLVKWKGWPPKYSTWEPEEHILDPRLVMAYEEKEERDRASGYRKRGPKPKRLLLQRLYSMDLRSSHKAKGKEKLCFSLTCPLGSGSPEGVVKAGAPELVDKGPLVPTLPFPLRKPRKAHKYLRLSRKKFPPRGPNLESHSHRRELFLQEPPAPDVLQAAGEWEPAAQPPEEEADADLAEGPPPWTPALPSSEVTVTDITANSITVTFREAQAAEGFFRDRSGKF

| Compound | z-score |
| --- | --- |
| Brc1ccc(-c2csc(Nc3ccc4c(c3)OCO4)n2)cc1 | -7.17 |
| COc1ccccc1CNc1ccc2c(c1)ncn2-c1ccc(C)cc1 | -3.66 |
| Cc1ccn2c(Nc3ccc4c(c3)OCO4)c(-c3ccccn3)nc2c1 | -25.7 |
| CC(C)(C)c1ccc2c(c1)N(CC(=O)NCc1cccs1)C(=O)CO2 | -14 |
| CS(=O)(=O)Nc1ccc(Cl)c2cccnc12 | -21.2 |
| CCCn1cc(C2CC(=O)N(c3ccccc3C)C2=O)c2ccccc21 (stereo not drawn) | -15.8 |
| CCCc1cc(-c2[nH]ncc2-c2ccc3c(c2)OCCO3)c(O)cc1OC | -15.1 |
| CCN(CC)S(=O)(=O)c1ccc(C(=O)Nc2nnc(COC)o2)cc1 | -1.29 |
| CC(C)(c1ccccc1)c1ccc(OCCN2CCOCC2)cc1 | -10.2 |
| Cc1cc2ncn(CC(O)COC3CCCCC3)c2cc1C (stereo not drawn) | -18 |
| O=C(CSc1nccn1-c1ccc(Cl)cc1)Nc1cccc(C(F)(F)F)c1 | -1.94 |
| CN(C)S(=O)(=O)c1ccc(C(=O)Nc2nnc(-c3ccc(F)cc3)o2)cc1 | -4.21 |
| O=C1CN(C(=O)COc2ccccc2)C(c2ccccc2)c2cc(Br)ccc2N1 (stereo not drawn) | -4.99 |
| COc1cccc(Nc2nc(-c3ccc(F)cc3)cs2)c1 | -3.82 |
| COc1cccc(-c2nc(-c3ccccc3)c(-c3cc([N+](=O)[O-])ccc3C)[nH]2)c1OC | -0.628 |
| CN(C)c1ccc(Nc2nc(-c3ccccc3)cs2)cc1 | -8.32 |
| CCCc1cc(-c2[nH]ncc2-c2ccc3c(c2)OCCCO3)c(O)cc1OC | -0.927 |
| CCCCOc1ccc(-c2nc3c(C(=O)OC)c[nH]n3c2NC2CCCCC2)cc1 | -16.1 |
| O=C(Nc1nc(-c2ccccn2)cs1)c1cccc(Oc2ccccc2)c1 | -17.5 |
| Brc1ccc(CNc2ccc3c(c2)ncn3-c2ccccc2)cc1 | -4.77 |
| COc1ccc(C(=O)N2CC(=O)Nc3ccc(C)cc3C2c2ccc(F)cc2)c(OC)c1 (stereo not drawn) | -6.66 |
| CC(C)(C)c1ccc(-c2nnc3sc(-c4ccccn4)nn23)cc1 | -26.4 |
| Cc1ccc(CNc2ccc3c(c2)ncn3C(C)(C)C)cc1 | -17 |
| Cc1cccc(NC(=O)C(=O)NCCCn2ccnc2)c1 | -14.5 |
| CCN(CCCNC(=O)c1nn(-c2ccccc2OC)c(=O)c2ccccc12)c1cccc(C)c1 | -7.14 |
| O=C(CC(C(=O)N1CCc2ccccc21)n1ccnc1)NCCN1CCCCCC1 (stereo not drawn) | -16.6 |

| Compound | z-score |
| --- | --- |
| COc1ccccc1C(=O)NCCc1c(C)[nH]c2ccc(OCc3ccccc3)cc12 | -8.18 |
| CCn1c(C(=O)N2CCC(C(=O)N3CCN(c4cccc(C)c4)C(C)C3)CC2)cc2sccc21 (stereo not drawn) | -2.44 |
| Cc1nc(Nc2ccccc2F)c2c(C)c(C)sc2n1 | -0.694 |
| Cc1cc2ncn(CC(O)COc3ccccc3C)c2cc1C (stereo not drawn) | -15.6 |
| COc1cc(OC)c(NC2c3ccccc3C(=O)N2c2ccc(C)cn2)cc1Cl (stereo not drawn) | -7.85 |
| COc1ccc(C(NC(=O)CC(C)C)c2ccc3cccnc3c2O)cc1OC (stereo not drawn) | -3.3 |
| COc1ccc(-n2cnc3cc(NCc4ccccc4OC)ccc32)cc1 | -3.21 |
| COc1ccc(Cl)cc1NC(=O)c1c(NCc2sccc2C)sc2c1CCCC2 | -8.57 |
| COCc1nnc(NC(=O)c2ccc(S(=O)(=O)N(CCC#N)CCC#N)cc2)o1 | -1.63 |
| O=C(O)c1ccc(Nc2nc(-c3ccccn3)cs2)cc1 | -16.2 |
| CCOc1ccc(NCC(O)Cn2c(C)c(C)c3ccccc32)cc1 (stereo not drawn) | -6.09 |
| COc1ccc(Nc2nc(-c3sc(N)nc3C)cs2)cc1 | -13.6 |
| Cc1c(NC(=O)c2ncn[nH]2)cccc1-c1nc2cc(Cl)ccc2o1 | -24.9 |
| CCN(CCCNC(=O)Cc1cn(C)c2ccccc12)c1cccc(C)c1 | -14.6 |
| COc1ccc(-n2cnc3cc(NCc4cccc(OC)c4OC)ccc32)cc1 | -5.03 |
| COc1ccc(CNc2ccc3c(c2)nc(C)n3Cc2ccccc2)cc1 | -11.8 |
| COc1ccc(OC)c(Nc2nc(-c3ccccn3)cs2)c1 | -7.94 |
| CCCCN(CCCC)S(=O)(=O)c1ccc(C(=O)Nc2nnc(C)o2)cc1 | -1.32 |
| Cc1ccc(Nc2c(-c3ccccn3)nc3ccc(C)cn23)cc1 | -19.8 |
| CCOC(=O)c1cnc2ccc(OC)cc2c1Nc1ccc2c(c1)OCCO2 | -2.33 |
| Cc1ccc(-c2csc(Nc3ccc(Cl)cc3)n2)cc1C | -11.9 |
| Cc1nc(Nc2cccc(C(F)(F)F)c2)c2c(C)c(C)sc2n1 | -0.722 |
| CCc1nnc(NC(=O)c2ccc(S(=O)(=O)N(CC)CC)cc2)o1 | -1.56 |
| CCOc1ccc(Nc2nc(-c3sc(NC(=O)c4ccccc4)nc3C)cs2)cc1 | -14.3 |
| O=C(CN1CCCC1)Nc1c2c(nc3c1CCC3)CCC2 | -9.77 |
| Cc1ccc(Nc2c(-c3ccc(N4CCOCC4)cc3)nc3sccn23)cc1C | -10.1 |

| Compound | z-score |
| --- | --- |
| COc1ccccc1-c1c(C)nn2c(NCc3ccccn3)cc(C)nc12 | -6.59 |
| Cc1nnc(NC(=O)c2ccc(S(=O)(=O)N3CC(C)CC(C)C3)cc2)o1 (stereo not drawn) | -0.814 |
| Oc1c(C(Nc2ccccc2)c2ccccc2)ccc2cccnc12 (stereo not drawn) | -12.3 |
| CCN1CCN(CCCNC(=O)COc2ccc3c(c2)C(=O)CC(C)(C)O3)CC1 | -10.8 |
| COCc1nnc(NC(=O)c2ccc(S(=O)(=O)N3CCCCCC3)cc2)o1 | -1.62 |
| C=CCc1ccccc1OCC(O)CN1CCN(c2ccc(C)cc2)CC1 (stereo not drawn) | -1.56 |
| COc1ccc(CN2C(=O)c3cccnc3C2Nc2ccc(OC)cc2)cc1 (stereo not drawn) | -12.6 |
| CCc1nnc(NC(=O)c2ncn[nH]2)s1 | -27.9 |
| Cc1ccc(NC2c3ncccc3C(=O)N2Cc2ccc(F)cc2)cc1 (stereo not drawn) | -7.2 |
| CC1CCN(Cc2cc(Cl)c(O)c3ncccc23)CC1 | -27.6 |
| CCOc1ccccc1CNC(=O)CCCc1cn(C)c2ccccc12 | -0.616 |
| O=C(NCCCn1ccnc1)c1ccc(C#Cc2ccccc2)cc1 | -5.61 |
| Cn1c(CNc2ccccc2O)nc2ccccc21 | -22.2 |
| Cc1ccc2nc(-c3ccccn3)c(Nc3ccc4c(c3)OCCO4)n2c1 | -21.6 |
| Oc1cccc(Nc2nc(-c3ccccn3)cs2)c1 | -16.1 |
| CCC(C)(C)C1CCc2oc3ccc(NS(=O)(=O)c4cccs4)cc3c2C1 (stereo not drawn) | -1.62 |
| c1ccc(Oc2ccc(-c3[nH]c(-c4ccccc4)nc3-c3ccccc3)cc2)cc1 | -2.11 |
| Cc1ccc(-c2nc(-c3c[nH]c4ccccc34)[nH]c2-c2ccc(C)cc2)cc1 | -0.624 |
| CCOC(=O)CCCCC(=O)c1[nH]c(=O)[nH]c1CSc1nnc2c(n1)[nH]c1ccccc12 | -0.577 |
| COc1ccccc1-c1nnc(NC(=O)c2ccc(S(=O)(=O)N(C)Cc3ccccc3)cc2)o1 | -16.8 |
| CCCn1cnc2cc(NCc3ccc(Br)cc3)ccc21 | -19.4 |
| N#Cc1nc(COc2ccccc2Cl)oc1NCCCn1ccnc1 | -43.7 |
| Cc1c(Cl)cccc1Nc1nc(-c2ccccn2)cs1 | -6.78 |
| Cc1ccc(OCc2nc(C#N)c(N3CCCCCC3)o2)cc1 | -3.76 |
| O=C1c2cccnc2C(Nc2ccc(Cl)cc2)N1Cc1ccc(F)cc1 (stereo not drawn) | -8.06 |
| CCCN(CCC)S(=O)(=O)c1ccc(C(=O)Nc2nnc(C)o2)cc1 | -1.22 |
